Assay results published in PubChem BioAssay AID1159614 (National Center for Advancing Translational Sciences (NCATS), 2016).
The whole screen tested about 45,000 compounds, of which about 65 (0.1%) were called active. Calls come from the whole dose curve; as a rule, active = well fitted activation curve with a large enough effect; inconclusive = small, poorly fitted or top-dose-only effect; inactive = no such curve, though single readings can be large or run the other way. The list shows a part of the results.

biological target: Galactocerebrosidase (Homo sapiens) (UniProt P54803); assay: A Novel Cell-Based Assay to Identify Small Molecules for B -Galactocerebrosidase; conditions: 145M-Twi-hGALC-G270D cells (Twitcher mouse brain line with human GALC G270D), HMU-beta-Gal fluorescence, 48 h; series mostly up to 57.5 µM; activation: at the top concentration; note: 0% is about no effect; nearly all actives have a fitted effect of over 65% in size
Sequence of UniProt P54803 (P54803 whole entry, looked up): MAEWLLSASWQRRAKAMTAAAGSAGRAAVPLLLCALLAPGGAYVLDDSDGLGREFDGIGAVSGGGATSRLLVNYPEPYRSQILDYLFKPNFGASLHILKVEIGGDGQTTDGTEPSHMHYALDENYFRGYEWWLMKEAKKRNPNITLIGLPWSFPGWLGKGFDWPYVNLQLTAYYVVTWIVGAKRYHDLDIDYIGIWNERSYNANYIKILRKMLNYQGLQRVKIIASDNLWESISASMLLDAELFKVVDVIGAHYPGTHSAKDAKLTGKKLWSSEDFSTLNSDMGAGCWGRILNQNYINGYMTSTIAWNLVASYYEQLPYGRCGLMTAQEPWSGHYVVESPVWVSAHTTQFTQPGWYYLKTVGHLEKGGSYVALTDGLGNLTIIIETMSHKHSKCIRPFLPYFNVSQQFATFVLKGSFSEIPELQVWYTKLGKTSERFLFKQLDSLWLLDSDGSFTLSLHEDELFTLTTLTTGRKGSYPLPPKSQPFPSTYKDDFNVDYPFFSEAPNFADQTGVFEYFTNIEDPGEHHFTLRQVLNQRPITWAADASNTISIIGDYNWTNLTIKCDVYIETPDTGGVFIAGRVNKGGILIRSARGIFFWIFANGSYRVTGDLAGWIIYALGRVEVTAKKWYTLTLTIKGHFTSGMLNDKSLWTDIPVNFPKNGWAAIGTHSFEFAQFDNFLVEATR
Procedure, shortened: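 Brain-derived Twitcher mouse 145M-Twi cells stably expressing human GALC-G270D or wild-type GALC, treated live, then residual GALC activity read by fluorescence of HMU-b-Gal substrate (0.1 mM final) in citrate-phosphate buffer pH 5.2 with sodium taurocholate. Signal increase indicates enhancement.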

activation, inactive:
CSc1ncc(Cl)c(C(=O)NCc2ccc(C)cc2)n1 -12.8%
COc1cc(Nc2nc(SCc3ccccc3F)nc3ccccc23)cc(OC)c1 -6.95%
Cc1ccc(CCNC(=O)c2ccc(CS(=O)(=O)c3ccc(Br)cc3)o2)cc1 -10.4%
CCOc1ccccc1NC(=O)CSc1c(C)cnc2c1c(=O)n(C)c(=O)n2C -1.33%
CCOc1ccc(C(=O)NCCc2sc(-c3ccc(C)cc3)nc2C)cc1 -16.9%
CC(C)CCN1C(=O)N(c2ccccc2)C(=O)C1CC(=O)Nc1ccc(Cl)cc1 (stereo not drawn) -7.47%
Cc1ccc(Sc2ccc(N3CCCC(C(=O)Nc4ccc(Cl)cc4)C3)nn2)cc1 (stereo not drawn) 2.22%
CC(C)NC(=O)CSc1nc2ccccc2nc1N1CCCCC1 -6.58%
COc1ccccc1N1CCN(CCCNC(=O)c2cnn(-c3ccccc3Cl)c2C2CCN(C(=O)OC(C)(C)C)CC2)CC1 -9.35%
CC1=C(C(=O)Nc2cccc(C)c2C)C2(CCCCC2)OC1=O -9.01%
CC1=C(C(=O)Nc2c(C)cc(C)cc2C)C2(CCN(C(C)C)CC2)OC1=O -8.55%
CCOCCCNC(=O)C(c1ccc(OC)cc1)N(Cc1cccs1)C(=O)c1ccccc1O (stereo not drawn) -17.2%
COc1ccc(CCNC(=O)c2cnc3sc(N4CCCCCC4)nn3c2=O)cc1OC 5.85%
COc1ccc(-c2cc3c(=O)n(CC(=O)Nc4ccccc4C(F)(F)F)ccn3n2)cc1OC -21.8%
COc1ccc(C(c2c(C)n(C)n(-c3ccccc3)c2=O)c2c(C)n(C)n(-c3ccccc3)c2=O)cc1O -14.4%
CCOc1cccc2sc(N(Cc3cccnc3)C(=O)c3ccco3)nc12 -16.3%
COc1cc(OC)c(NC(=O)Nc2nnc(N(C)C3CCCCC3)s2)cc1Cl -7.23%
Cc1ccc(N2CC(NC(=O)Cc3cccs3)CC2=O)cc1 (stereo not drawn) -10.4%
CC1(C(=O)Nc2cccc(C(F)(F)F)c2)Cc2ccccc2C(=O)O1 (stereo not drawn) -7.76%
Cc1c(C(=O)Nc2ccc(Br)cc2F)oc2ccc(S(=O)(=O)N3CCCCC3)cc12 -20.7%
CC1CCN(CC(=O)N2CCCc3c2c(=O)oc2ccc(OCc4ccccc4)cc32)CC1 -33.4%
CC(=O)c1ccc(NC(=O)CN(C)S(=O)(=O)c2cc3c(cc2C)NC(=O)CO3)cc1 -6.12%
COc1ccccc1-c1c(C(F)(F)F)oc2c(CN3CCCCC3C)c(O)ccc2c1=O (stereo not drawn) 6.7%
Cc1ccccc1CN1C(=O)c2ccccc2Sc2ccc(C(=O)N3CCOCC3)cc21 -18.6%
Cc1cc(F)ccc1NC(=O)CCS(=O)(=O)c1cccc2nsnc12 0.481%
O=C(Nc1ccc2oc(-c3cccc4c(Br)cccc34)nc2c1)c1ccc(Br)cc1 -13.1%
CC(=O)c1[nH]c(C)c(C(=O)NCc2ccc(Cl)cc2)c1C -38.1%
Cc1cccc(-c2nc(-c3ccc4c(c3)[nH]c(=O)n4C)no2)c1 -6.75%
CCN1C(=O)c2ccccc2S(=O)c2ccc(C(=O)N3CCN(c4ccc(F)cc4)CC3)cc21 (stereo not drawn) -3.35%
Cc1ccc(S(=O)(=O)N2CCC(C(=O)Nc3cc(C)ccc3C)CC2)cc1 -12.4%
CCCN(CCC)CCCNC(=O)c1cc2c(-c3ccc(Cl)cc3)nn(C)c2s1 -13.7%
Cc1cccc(NC(=O)CSc2nc3c(oc4ccccc43)c(=O)n2-c2ccccc2)c1C -9.04%
CCOC(=O)c1[nH]c(C)c(CCC(=O)NCc2cccc(Cl)c2)c1C -5.17%
O=C(CSc1c2c(nc3ccccc13)CCC2)Nc1ccc(F)cc1F 2.78%
CCN1CCCC(OC(=O)C(c2ccccc2)c2ccccc2)C1 (stereo not drawn) -21%
COc1cc(-c2cc3n(C)c(C)c(CCC(=O)Nc4ccc(F)cc4)c(=O)n3n2)cc(OC)c1OC -11.9%
COc1ccc(Cn2c(=O)c3oc4ccccc4c3n(Cc3ccccc3)c2=O)cc1 -11.2%
COC(=O)c1ccc([C@@H]2Nc3c(cccc3C(F)(F)F)[C@@H]3C=CC[C@@H]32)cc1 -18.5%
Cc1ccc(NC(=O)CSc2nc3c(c(=O)[nH]2)CN(Cc2ccccc2)CC3)cc1Cl -0.835%
CC(=O)N1c2ccccc2C(=O)C1N1CCN(c2cccc(C)c2C)CC1 (stereo not drawn) -11.6%
Nc1nonc1-c1nc2ccccc2n1Cc1ccc(Br)cc1 -13.9%
CC1(C)CC(=O)c2cc(C(=O)Nc3ccc(Cl)cc3)c(=O)[nH]c2C1 -13.2%
Cc1ccc(NC(=O)C2=CC(c3cccs3)=NS(=O)(=O)N2C)cc1 -12.6%
CC(CNC(=O)c1sc2ncccc2c1-n1cccc1)c1ccccc1 (stereo not drawn) -17.2%
CC(C)(Oc1ccc(Cl)cc1)C(=O)Nc1cccc(-c2cn3cccnc3n2)c1 -11.7%
O=C(CC(c1cccs1)N1Cc2ccccc2C1=O)Nc1ccccc1F (stereo not drawn) -16%
Cc1ccc(-c2nn(CCC(=O)Nc3ccc(Cl)c(Cl)c3)c(=O)c3ccccc23)cc1 2.11%
CCOc1cc(C2C(C(N)=O)=C(C)Nc3ncnn32)cc(Br)c1O (stereo not drawn) -1.67%
COc1ccc(-c2nc(S(=O)(=O)c3ccc(Cl)cc3)c(N3CCCCCC3)o2)cc1 -14%
Cc1ccc(C(=O)NCCSc2c(C)[nH]c3ccccc23)cc1C -12.2%
Cc1ccc(CSC2=Nc3ccccc3C3=NC(CCC(=O)NCCc4ccccc4)C(=O)N23)cc1 (stereo not drawn) -18.1%
COC(=O)c1cc2occc2n1Cc1ccc(F)cc1Cl -11.1%
Cc1ccc(NC(=O)CN2C(=O)CSc3ccc(S(=O)(=O)N(C)C)cc32)cc1C -28.7%
O=C(Oc1ccccc1C(=O)O)c1ccccc1O 1.35%
Cc1ccc(Cl)cc1-n1c(=O)c2sc3ccccc3c2n(CC(=O)NC2CCCC2)c1=O 0.464%
Oc1c(C(c2ccc(F)cc2)N2CCCC2)sc2nc(-c3ccco3)nn12 (stereo not drawn) -7.76%
Cc1ccc(S(=O)(=O)c2cn(C)c3cc(N4CCOCC4)c(F)cc3c2=O)c(C)c1 -10.6%
Cc1ccc(CCNC(=O)C2COc3ccccc3C2)cc1 (stereo not drawn) -21%
Cc1cc(C)n(-c2nc3cc(Cl)ccc3nc2N2CCN(c3cccc(C)c3C)CC2)n1 -5.88%
Cc1ccc(CCNC(=O)Cn2ncc3c([nH]c4ccccc43)c2=O)cc1 -8.43%
COc1ccccc1CNS(=O)(=O)c1c(C(=O)N2CCC(C)CC2)c(C)n(C)c1C -3.85%
Cc1ccc2c(c1)-c1onc(C(=O)N3CCN(c4cc(C)ccc4C)CC3)c1CO2 -6.67%
O=C(O)c1ccc(S(=O)(=O)N(Cl)Cl)cc1 -29.1%
COC(=O)c1ccccc1NC(=O)CSc1cc(-c2ccccc2)nc(C)n1 -17.7%
Clc1ccc(-c2ccc(CNCCSc3nnnn3-c3ccccc3)o2)cc1 -14.8%
O=C(C1CCCN(S(=O)(=O)c2cccc3nonc23)C1)N1CCN(c2ccccc2F)CC1 (stereo not drawn) -9.09%
O=C(CCn1c(=O)c2cccn2c2ccc(F)cc21)NCCc1ccc(Cl)cc1 5.74%
COc1ccc(NC(=O)N2CCC(CN3CCCC3)CC2)c(OC)c1 -10.2%
CCCCCN1C(C(=O)c2ccccc2)=C(NC(=O)c2ccc(OC)c(OC)c2)c2ccccc2S1(=O)=O -17.7%
COc1ccc(C)cc1NC(=O)CSc1nc(=O)n(Cc2cccnc2)c2c1CCC2 -22.8%
COc1ccc(OC)c(C(=O)CN2C(=O)N(c3cc(C)cc(C)c3)S(=O)(=O)c3ccccc32)c1 -13.7%
Clc1cccc(-n2ncc3c(NCCC4=CCCCC4)ncnc32)c1 -1.87%
Clc1ccccc1-c1nc(-c2ccncc2)no1 -17.1%
CCN(CC)S(=O)(=O)c1nnc(NC(=O)COc2ccccc2)s1 -3.82%
COc1ccc(C2(CNC(=O)C(=O)Nc3ccc(C)c(Cl)c3)CCCC2)cc1OC -27.5%
COc1c(C)c2c(c(O)c1C/C=C(\C)CCC(=O)O)C(=O)OC2 2.46%
CC(=O)c1ccc(N2C(=O)N(Cc3ccc(F)cc3)c3ccccc3S2(=O)=O)cc1 0.0981%
CCN1CCN(c2oc(-c3ccc(COc4ccc(OC)cc4)o3)nc2C#N)CC1 -16.4%
CC(C)(C)OC(=O)N1CCC(c2c(C(=O)NCCN3CCOCC3)cnn2-c2cccc(F)c2)CC1 -14.1%
O=C(CSc1nc2c(c(=O)[nH]1)CCC2)Nc1cccc(O)c1 -14.4%
CC(NC(=O)c1cccc(Nc2nc3ccccc3n3nnnc23)c1)c1ccccc1 (stereo not drawn) -14.6%
COc1ccc(OC)c(NC(=O)Nc2cccc(OCc3cc(=O)n4cc(C)ccc4n3)c2)c1 -7.9%
CCCCN1C(=O)C(NC(=O)c2ccc(C(C)(C)C)cc2)(C(F)(F)F)C(C(=O)OC)=C1C (stereo not drawn) -12.4%
COc1ccc(NC(=O)C2CCN(c3nc4ccccc4[nH]3)CC2)cc1OC 2.61%
Cc1ccc(NC(=O)CSc2nnc(C)s2)c(C)c1 -3.98%
Cc1cc(O)c(C(c2ccc(F)cc2)N2CCN(c3ccccc3)CC2)c(=O)n1Cc1ccco1 (stereo not drawn) -5.58%
Cc1ccc(S(=O)(=O)NCCc2nnc3ccc(SCc4cccc(F)c4)nn23)cc1 -9.78%
CCn1c(=O)c2sccc2n2c(CCCC(=O)Nc3ccc(C)cc3)nnc12 -10.9%
Cc1ccc(N2CCN(c3ncnc4onc(-c5ccc(F)cc5)c34)CC2)c(C)c1 -10.3%
COc1cc(NC(=O)c2c(C)nn(-c3ccc(F)cc3)c2-n2cccc2)cc(OC)c1 -14.2%
COc1ccc(-n2nnnc2C2CCN(S(=O)(=O)c3cc(Cl)ccc3OC)CC2)cc1 -12%
Cc1ccc(Nc2c(-c3ccco3)nc3ccc(C)cn23)cc1 -16.7%
CCN(C(=O)c1cc2c(=O)oc3ccccc3c2s1)c1cccc(C(F)(F)F)c1 10.7%
CCOc1ccc(OCC)c(Nc2nc3ccccc3n3nnnc23)c1 -3.24%
COc1ccc(-c2nc3ccccc3o2)cc1NC(=O)c1ccc(-c2ccc(C)c(Cl)c2)o1 0.663%
COc1ccc(CC(=O)Nc2c(C(=O)N3CCN(c4ccccc4F)CC3)oc3ccccc23)cc1OC -13.8%
COc1ccccc1Nc1ncc2c(n1)CCN(CC(C)C)C2 -5.34%
COc1ccc(NC(=O)c2c(NC(=O)c3cccc(C)c3)sc3c2CCC3)cc1 -7.14%
